Test results taken from the supplement of paper PMC10126150.
Sequences with one replicate were seen in a single cluster, so their values are uncertain.

Tested on: ATP
Assay: switch fluorescence ratio, 500 uM ATP over buffer (Cy3 cluster intensity, sum of 5 cycles each) (fold (ratio)); higher = stronger signal-on switching upon ATP binding; sequences stand for … in TCGTCGGCAGCGTCAGATGTGTATAAGAGACAGTTTTTTTTTTTTTTTTTTTTTTTTT…TC
Conditions: aptamer strand: ATP DNA aptamer (quencher-CACCTGGGGGAGTATTGCGGAGGAAGG + anchor), 100 nM annealed; ATP concentration: 500 uM; one replicate
In short: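 Clusters with intensities outside 100-1000 RFU were excluded. The remaining Cy3-labelled switching-strand clusters on a modified Illumina MiSeq flow-cell had been annealed to 100 nM quencher-labelled ATP aptamer and imaged in selection buffer, then after 15 min with 500 uM ATP at 22 °C, for five cycles separated by NaOH stripping and re-annealing. The fluorescence ratio, averaged per switch-domain sequence, is each cluster's summed target-cycle Cy3 intensity over its summed buffer-cycle Cy3 intensity.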
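Also: ATP exposure 15 min at 22 °C before imaging.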

Q: Which switch fluorescence ratio does the source give for GGATTCGCT here?
A: 0.956

Q: How did the switch fluorescence ratio turn out when GGATTGACGT was run?
A: 1.05

Q: How did the switch fluorescence ratio turn out when GGATTGCGGA was run?
A: 0.975

Q: For GGATTGTTGC, which switch fluorescence ratio is on record?
A: 1.01

Q: For GGATTTCTGC, which switch fluorescence ratio is on record?
A: 0.968

Q: With GGCAAAACCT as the sequence, how does the switch fluorescence ratio read?
A: 1.82

Q: How did the switch fluorescence ratio turn out when GGCAAAGAGT was run?
A: 0.966

Q: How did the switch fluorescence ratio turn out when GGCAAATGCA was run?
A: 0.999

Q: For GGCAACAAAA, which switch fluorescence ratio is on record?
A: 0.995

Q: How did the switch fluorescence ratio turn out when GGCAACGATG was run?
A: 1.02

Q: GGCAACTTGG was tested. Which switch fluorescence ratio did it give?
A: 1

Q: How did the switch fluorescence ratio turn out when GGCAAGTTGT was run?
A: 0.957

Q: Which switch fluorescence ratio does the source give for GGCAATTTTA here?
A: 0.984

Q: GGCACACCAA was tested. Which switch fluorescence ratio did it give?
A: 1.03

Q: For GGCACAGCTT, which switch fluorescence ratio is on record?
A: 0.992

Q: Which switch fluorescence ratio does the source give for GGCACCCGGG here?
A: 0.977

Q: For GGCACCTATG, which switch fluorescence ratio is on record?
A: 1.04

Q: How did the switch fluorescence ratio turn out when GGCACGCGGA was run?
A: 1.02

Q: Which switch fluorescence ratio does the source give for GGCACGGAGC here?
A: 1.06

Q: For GGCAGGGTTC, which switch fluorescence ratio is on record?
A: 0.976

Q: Which switch fluorescence ratio does the source give for GGCAGTATGG here?
A: 0.968

Q: How did the switch fluorescence ratio turn out when GGCAGTGGAG was run?
A: 0.997

Q: How did the switch fluorescence ratio turn out when GGCAGTTACT was run?
A: 1.06

Q: With GGCATAGAGA as the sequence, how does the switch fluorescence ratio read?
A: 1.06

Q: GGCATAGCGG was tested. Which switch fluorescence ratio did it give?
A: 1.03

Q: With GGCATATCCG as the sequence, how does the switch fluorescence ratio read?
A: 0.991

Q: For GGCATATTCG, which switch fluorescence ratio is on record?
A: 0.937

Q: Which switch fluorescence ratio does the source give for GGCATCATGG here?
A: 0.971

Q: GGCATCGAAA was tested. Which switch fluorescence ratio did it give?
A: 1

Q: How did the switch fluorescence ratio turn out when GGCATGAGTA was run?
A: 1

Q: GGCATGTTAC was tested. Which switch fluorescence ratio did it give?
A: 1.27

Q: GGCATTCAGA was tested. Which switch fluorescence ratio did it give?
A: 0.978

Q: For GGCCAGAGAC, which switch fluorescence ratio is on record?
A: 0.994

Q: GGCCAGCTTT was tested. Which switch fluorescence ratio did it give?
A: 0.96

Q: GGCCAGGTAA was tested. Which switch fluorescence ratio did it give?
A: 1.07

Q: For GGCCAGTAAA, which switch fluorescence ratio is on record?
A: 0.964

Q: How did the switch fluorescence ratio turn out when GGCCAGTTCC was run?
A: 1.01

Q: For GGCCATTAA, which switch fluorescence ratio is on record?
A: 1.04

Q: GGCCATTAAT was tested. Which switch fluorescence ratio did it give?
A: 0.983

Q: How did the switch fluorescence ratio turn out when GGCCCAAAGG was run?
A: 0.987

Q: With GGCCCTGGCG as the sequence, how does the switch fluorescence ratio read?
A: 1.02

Q: Which switch fluorescence ratio does the source give for GGCCGACGCG here?
A: 1.06

Q: With GGCCGATGTG as the sequence, how does the switch fluorescence ratio read?
A: 0.992

Q: How did the switch fluorescence ratio turn out when GGCCGTTAGA was run?
A: 0.97

Q: Which switch fluorescence ratio does the source give for GGCCGTTTTG here?
A: 0.961

Q: With GGCCTAAGTA as the sequence, how does the switch fluorescence ratio read?
A: 1.03

Q: With GGCCTAGGCA as the sequence, how does the switch fluorescence ratio read?
A: 0.995

Q: GGCCTCAAAG was tested. Which switch fluorescence ratio did it give?
A: 0.998

Q: How did the switch fluorescence ratio turn out when GGCCTTGTAT was run?
A: 0.998

Q: For GGCGAATGAG, which switch fluorescence ratio is on record?
A: 0.983

Q: For GGCGACCC, which switch fluorescence ratio is on record?
A: 1.09

Q: How did the switch fluorescence ratio turn out when GGCGACGGTG was run?
A: 0.987

Q: With GGCGAGCAAT as the sequence, how does the switch fluorescence ratio read?
A: 1.91

Q: GGCGAGGTTC was tested. Which switch fluorescence ratio did it give?
A: 0.991

Q: Which switch fluorescence ratio does the source give for GGCGATAGTG here?
A: 0.986

Q: For GGCGATATTA, which switch fluorescence ratio is on record?
A: 0.998

Q: How did the switch fluorescence ratio turn out when GGCGATTATT was run?
A: 1.01

Q: How did the switch fluorescence ratio turn out when GGCGCAATTA was run?
A: 3.04

Q: For GGCGCATGTG, which switch fluorescence ratio is on record?
A: 1.01

Q: For GGCGCCATGT, which switch fluorescence ratio is on record?
A: 0.992

Q: With GGCGCCTCGC as the sequence, how does the switch fluorescence ratio read?
A: 0.986

Q: How did the switch fluorescence ratio turn out when GGCGCGCATC was run?
A: 0.975

Q: Which switch fluorescence ratio does the source give for GGCGCGGTAT here?
A: 1.02

Q: For GGCGCTCCAC, which switch fluorescence ratio is on record?
A: 1.14

Q: For GGCGCTTTAA, which switch fluorescence ratio is on record?
A: 1.05

Q: GGCGGAAACG was tested. Which switch fluorescence ratio did it give?
A: 0.997

Q: Which switch fluorescence ratio does the source give for GGCGGAGTCA here?
A: 1.03

Q: For GGCGGATTTA, which switch fluorescence ratio is on record?
A: 0.965

Q: GGCGGCATAC was tested. Which switch fluorescence ratio did it give?
A: 2.99

Q: With GGCGGCCAAT as the sequence, how does the switch fluorescence ratio read?
A: 1.01

Q: Which switch fluorescence ratio does the source give for GGCGGCGCGG here?
A: 0.966

Q: With GGCGGGCAAG as the sequence, how does the switch fluorescence ratio read?
A: 1.03

Q: GGCGGGGCGG was tested. Which switch fluorescence ratio did it give?
A: 1.01

Q: GGCGGGTTGT was tested. Which switch fluorescence ratio did it give?
A: 0.969

Q: With GGCGGTGTTA as the sequence, how does the switch fluorescence ratio read?
A: 0.955

Q: With GGCGGTTGGT as the sequence, how does the switch fluorescence ratio read?
A: 0.986

Q: For GGCGTATCT, which switch fluorescence ratio is on record?
A: 0.966

Q: How did the switch fluorescence ratio turn out when GGCGTATCTT was run?
A: 0.988

Q: With GGCGTCAGTA as the sequence, how does the switch fluorescence ratio read?
A: 0.982

Q: How did the switch fluorescence ratio turn out when GGCGTCAT was run?
A: 1.02

Q: Which switch fluorescence ratio does the source give for GGCGTGAAAA here?
A: 0.971

Q: For GGCGTGAGGT, which switch fluorescence ratio is on record?
A: 0.969

Q: GGCGTGCGGC was tested. Which switch fluorescence ratio did it give?
A: 1.05

Q: With GGCGTGCT as the sequence, how does the switch fluorescence ratio read?
A: 0.965

Q: GGCGTTGGGA was tested. Which switch fluorescence ratio did it give?
A: 1
